From PubChem BioAssay (Tox21)
This list was built around the results that the source calls inconclusive (neither active nor inactive); the mix of calls is not that of the screen. A potency beside an inconclusive call is a rough fit, not a confirmed value. The source made the active and inactive calls. Unless noted, calls come from the whole dose curve; as a rule, active = well fitted cell-killing curve with a large enough effect in the repeat runs; inconclusive = weak or mixed curves; inactive = no such curve, though single readings can be large or run the other way.

System: not listed separately
Assay: qHTS assay for small molecule agonists of the antioxidant response element (ARE) signaling pathway (AID 743202; active = well fitted activation curve with a large enough effect in the signal ratio in the repeat runs, not every such curve was filed as active; inconclusive = weak or mixed curves, or effect the other way; inactive = no such curve, though single readings can be large or run the other way; the % refers to the signal ratio)
Details: HepG2 ARE-bla reporter, beta-lactamase FRET, 16 h; activation: at 73.3 µM (top of the series) unless noted
Method in brief: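 HepG2 ARE-bla reporter line, 2,000 cells/well; 5 h preincubation 37 C/5% CO2; compound (DMSO) 16 h 37 C; B/G FRET substrate 2 h RT; fluorescence intensity.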
% is set by controls: 0 for no effect and ±100 for the full control effect; potency is the fitted concentration of half-maximal effect; tags give direction and shape of the fitted curve or compound fluorescence and quenching.

Structure (SMILES)	activation	Potency
Clc1cccc(C(c2ccc3nc[nH]c3c2)n2ccnc2)c1 (stereo unspecified)	inactive: 13.8%	
C=CCc1cc(OC)c(O)c(C(=O)NCCO)c1		inconclusive: 9.44 µM
O=C(OCCc1ccccc1)c1ccccc1	inactive: 8.31%	
CCCC(C)=O	inconclusive: -14.1%	
OCC(CBr)(CBr)CBr	inconclusive: -0.767%	
CO[C@@]1(NC(=O)CSCC#N)C(=O)N2C(C(=O)O)=C(CSc3nnnn3C)CS[C@@H]21	inactive: 13.4%	
CCCCOCCOCCOCCCC	inconclusive: 13.7%	
OCCN1C[C@H](O)[C@@H](O)[C@H](O)[C@H]1CO	inactive: 0.0655%	
CCN(Cc1ccccc1)c1ccccc1	inactive: 1.66%	
CS(C)=O	inconclusive: 23.9%	
CO/N=C(\C(=O)O)c1csc(NC(=O)CCl)n1		active: 13.3 µM
O=C(O)C(=O)O		inactive
CCCCC1CCC(=O)O1 (stereo unspecified)	inactive: -4.36%	
CCCCCCCCCCCCOCCOS(=O)(=O)O		inconclusive: 68.6 µM
Cc1c(N(C)CS(=O)(=O)O)c(=O)n(-c2ccccc2)n1C		inactive
CC(=O)c1ccc2c(c1)N(CCCN(C)C)c1ccccc1S2	inconclusive: -24.8%	
Cc1cc2c(s1)Nc1ccccc1N=C2N1CCN(C)CC1	inconclusive: -7.62%	

Structure (SMILES)	activation	Potency
O=C1N(c2ccccc2)c2ccccc2C1(Cc1ccncc1)Cc1ccncc1	inconclusive: -1.12%	
Cc1cc(C)c(C)c(C)c1	inactive: -14.5%	
O=C1OC(=O)C2C3C=CC(C3)C12 (stereo unspecified)	inconclusive: -10.9%	
CC(C)C(=O)OC/C=C/c1ccccc1	inactive: 13.1%	
COc1ccc2cc(CCC(C)=O)ccc2c1		inconclusive: 26.6 µM [rising, partial curve]
CC(C)(C)c1ccc(OC(=O)c2ccccc2O)cc1	inactive: -1.05%	
CC(=O)c1nccs1		inactive
c1ccc2c(CC3=NCCN3)cccc2c1	inactive: 2.39%	
CC(C)C(=O)OCC(C)(C)C(O)C(C)C (stereo unspecified)	inactive: -4.05% [at 94.8 µM]	
CC(=O)Oc1cc(C(C)C)c(OCCN(C)C)cc1C	inactive: -0.747%	
CC(=O)NCCCS(=O)(=O)O		active: 26.5 µM
N[C@@H](CCC(=O)O)C(=O)O	inactive: -0.39%	
C=CCCC	inactive: 0% [at 94.8 µM]	
c1ccc2cnncc2c1	inactive: -0.575%	
CC(C)COC(=O)c1ccccc1		inconclusive: 61.1 µM [rising, partial curve, poor fit]
Clc1cccc(-c2cc(Cl)cc(Cl)c2)c1	inactive: -4.63%	

System: not listed separately
Assay: qHTS assay for small molecule activators of the heat shock response signaling pathway (AID 743210; active = well fitted activation curve with a large enough effect in the signal ratio in the repeat runs, with a control signal flat, not every such curve was filed as active; inconclusive = weak or mixed curves; the % refers to the signal ratio;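 for activation: HeLa cells with beta-lactamase reporter driven by heat shock elements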)
Details: HeLa HSE-bla reporter, beta-lactamase ratio, 5 h; activation: at 62.6 µM (top of the series) unless noted
Method in brief: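 Beta-lactamase reporter read-out: FRET substrate fluorescence after 2.5 h at RT, following 5 h compound treatment at 37 C of HeLa cells carrying HSE-driven bla reporter; quantitative HTS format.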

Structure (SMILES)	activation	Potency
Clc1cccc(C(c2ccc3nc[nH]c3c2)n2ccnc2)c1 (stereo unspecified)	inactive: 1.76%	
C=CCc1cc(OC)c(O)c(C(=O)NCCO)c1	inactive: 0.55%	
CCC(CC)Nc1ccc(C)c(C)c1		inconclusive: 58.2 µM [activator]
CO[C@@]1(NC(=O)CSCC#N)C(=O)N2C(C(=O)O)=C(CSc3nnnn3C)CS[C@@H]21	inactive: -1.57%	
CCCCOCCOCCOCCCC	inactive: -0.869%	
CS(C)=O	inconclusive: 6.09%	
CCC(=O)O[C@@H]1C[C@H]2CC[C@]1(C)C2(C)C	inactive: -1.04%	
CC(=O)c1ccc2c(c1)N(CCCN(C)C)c1ccccc1S2	inactive: -1.76%	
O=C1N(c2ccccc2)c2ccccc2C1(Cc1ccncc1)Cc1ccncc1		inconclusive: 1.88 µM [fluorescent, partial curve]
O=C(O)c1ccccc1Nc1cc(Cl)ccc1C(=O)O		inconclusive: 10.7 µM [activator]
Clc1cccc(-c2cc(Cl)cc(Cl)c2)c1		inconclusive: 59.5 µM [activator]

System: not listed separately
Assay: qHTS assay to identify small molecule agonists of the peroxisome proliferator-activated receptor delta (PPARd) signaling pathway - cell viability counter screen (AID 743211); note: nearly all actives have a fitted effect of over 55% in size
Details: PPARd-bla HEK293H viability, CellTiter-Glo luminescence, 17 h; activity change, negative = cytotoxicity: at 62.6 µM (top of the series)
Method in brief: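 PPARd-bla HEK293H cells (3000/well) were pre-incubated 5 h at 37 C, then exposed to compound for 17 h at 37 C. After 2 h with LiveBLAzer substrate, CellTiter-Glo was added to the same wells; luminescence read after 30 min at room temperature.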

Structure (SMILES)	Potency	activity change, negative = cytotoxicity
CO/N=C(\C(=O)O)c1csc(NC(=O)CCl)n1	inconclusive: 29.8 µM [rising, partial curve, poor fit]	
CCCCCCCCCCCCOCCOS(=O)(=O)O	inconclusive: 38.9 µM [cytotoxic, partial curve]	
CC(=O)c1ccc2c(c1)N(CCCN(C)C)c1ccccc1S2	inconclusive: 7.5 µM [cytotoxic, single point]	
O=C1OC(=O)C2C3C=CC(C3)C12 (stereo unspecified)		inactive: -12%
O=C(O)c1ccccc1Nc1cc(Cl)ccc1C(=O)O	inconclusive: 16.4 µM [cytotoxic, single point]	

Target: Peroxisome proliferator-activated receptor delta (Homo sapiens) (UniProt Q03181)
Chain of UniProt Q03181 (Q03181 whole entry, looked up): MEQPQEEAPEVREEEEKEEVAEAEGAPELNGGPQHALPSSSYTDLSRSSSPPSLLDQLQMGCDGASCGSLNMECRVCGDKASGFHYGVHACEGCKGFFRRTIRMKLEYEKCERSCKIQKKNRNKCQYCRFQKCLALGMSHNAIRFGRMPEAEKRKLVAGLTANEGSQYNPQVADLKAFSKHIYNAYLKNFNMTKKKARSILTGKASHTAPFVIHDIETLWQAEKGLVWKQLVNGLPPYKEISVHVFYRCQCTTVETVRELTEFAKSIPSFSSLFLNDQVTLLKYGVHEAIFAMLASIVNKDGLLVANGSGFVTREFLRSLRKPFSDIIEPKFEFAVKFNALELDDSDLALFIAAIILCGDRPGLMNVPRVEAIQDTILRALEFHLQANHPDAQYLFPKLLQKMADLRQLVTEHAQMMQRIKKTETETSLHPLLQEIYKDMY
Assay: qHTS assay to identify small molecule agonists of the peroxisome proliferator-activated receptor delta (PPARd) signaling pathway (AID 743212; calls by dose curve)
Details: HEK293H PPARd-UAS-bla, beta-lactamase FRET ratio, 17 h; activation: at 62.6 µM (top of the series) unless noted
Method in brief: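 Read-out: beta-lactamase FRET fluorescence after 2 h room-temperature incubation with LiveBLAzer B/G substrate. Cells were HEK293H carrying a UAS-bla reporter for PPARd, treated at 37 C with DMSO-dissolved compounds.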

Structure (SMILES)	activation	Potency
Clc1cccc(C(c2ccc3nc[nH]c3c2)n2ccnc2)c1 (stereo unspecified)	inactive: 0.564%	
OCCN1C[C@H](O)[C@@H](O)[C@H](O)[C@H]1CO	inactive: -1.55%	
CCN(Cc1ccccc1)c1ccccc1	inactive: 1.1%	
Cc1cc2c(s1)Nc1ccccc1N=C2N1CCN(C)CC1		inconclusive: 13.3 µM [rising, single point]
Cc1cc(C)c(C)c(C)c1	inactive: -0.223%	
O=C(O)c1ccccc1Nc1cc(Cl)ccc1C(=O)O		inconclusive: 14.6 µM
CC1=C(CC(=O)O)c2cc(F)ccc2/C1=C\c1ccc(S(C)(=O)=O)cc1		inconclusive: 33.5 µM [rising, single point]
CC(C)C(=O)OC/C=C/c1ccccc1	inactive: 3.13%	

System: not listed separately
Assay: qHTS assay to identify small molecule antagonists of the peroxisome proliferator-activated receptor delta (PPARd) signaling pathway - cell viability counter screen (AID 743213); note: nearly all actives have a fitted effect of over 50% in size
Details: PPARd-bla HEK293H viability, CellTiter-Glo luminescence, 17 h; viability change, negative = cytotoxic: at 62 µM (top of the series) unless noted
Method in brief: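 Luminescence from CellTiter-Glo, added after the bla read and incubated 30 min at room temperature, gives viability of HEK293H PPARd-bla cells exposed to compounds for 17 h at 37 C with 300 nM L165041.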

Structure (SMILES)	viability change, negative = cytotoxic	Potency
FC(F)(Cl)C(F)(Cl)Cl	inactive: 20.3%	
Clc1cccc(C(c2ccc3nc[nH]c3c2)n2ccnc2)c1 (stereo unspecified)	inactive: 1.6%	
OCC(CBr)(CBr)CBr		inconclusive: 0.0097 µM [cytotoxic, full curve, poor fit]
CO/N=C(\C(=O)O)c1csc(NC(=O)CCl)n1	inconclusive: 32.9%	
CCCCCCCCCCCCOCCOS(=O)(=O)O		inconclusive: 49 µM [cytotoxic, partial curve]
Cc1c(N(C)CS(=O)(=O)O)c(=O)n(-c2ccccc2)n1C		inconclusive: 2.66 µM [cytotoxic, full curve, poor fit]
O=C1N(c2ccccc2)c2ccccc2C1(Cc1ccncc1)Cc1ccncc1		inconclusive: 0.298 µM [cytotoxic, single point]
O=C(O)c1ccccc1Nc1cc(Cl)ccc1C(=O)O	inconclusive: -40.3% [cytotoxic] [at 28.9 µM]	
CC(C)C(=O)OC/C=C/c1ccccc1		inconclusive: 0.195 µM [cytotoxic, single point]
COc1ccc2cc(CCC(C)=O)ccc2c1		inconclusive: 2.98 µM [cytotoxic, single point]
CC(=O)c1nccs1		inconclusive: 19.5 µM [cytotoxic, single point]
c1ccc2c(CC3=NCCN3)cccc2c1	inactive: -1.89%	
CC(C)C(=O)OCC(C)(C)C(O)C(C)C (stereo unspecified)	inactive: 19.7% [at 80.4 µM]	
CC(=O)Oc1cc(C(C)C)c(OCCN(C)C)cc1C	inactive: 15.5%	
